Holding throughout (experiment): uncleaved DNA left, log2 of reads against the no-enzyme library (log2 ratio); higher = less cleavage (more negative = more Rep cleavage of the k-mer); sequences stand for … in CTCGTCCG…ACCGGAGA
Test [1] has as its system T1, Rep nickase domain of Muscovy duck circovirus.
T1 sequence (protein, residues 1-111, tag omitted): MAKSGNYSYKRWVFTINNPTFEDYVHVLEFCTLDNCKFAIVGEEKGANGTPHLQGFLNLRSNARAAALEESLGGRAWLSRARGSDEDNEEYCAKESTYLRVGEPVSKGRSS
Here is the method:
(§1)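 A pool of 90-nt single-stranded DNAs with seven random bases just before the constant AC of the nick site (name = the seven bases) was cut by 3 µM recombinant His6-SUMO-tagged Rep nickase domain (300 nM DNA, 50 mM HEPES pH 8.0, 50 mM NaCl, 1 mM MnCl2, 1 h, 37 °C, three replicates). Uncut DNA was amplified and sequenced.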

The subject of test [2] is T2, Rep nickase domain of banana bunchy top virus.
T2 sequence (protein, residues 1-94, tag omitted): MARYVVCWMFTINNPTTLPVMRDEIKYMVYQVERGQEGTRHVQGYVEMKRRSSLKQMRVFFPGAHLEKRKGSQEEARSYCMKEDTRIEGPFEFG
The method, then: as §1
In test [3] the test system is T3, Rep nickase domain of cabbage leaf curl virus.
T3 sequence (protein, residues 1-116, tag omitted): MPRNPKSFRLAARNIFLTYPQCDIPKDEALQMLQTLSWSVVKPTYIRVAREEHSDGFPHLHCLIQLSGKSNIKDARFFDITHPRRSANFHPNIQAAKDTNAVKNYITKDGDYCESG
The method, then: as §1
Test [4] relates to T4, Rep nickase domain of chickpea chlorotic dwarf virus.
T4 sequence (protein, residues 1-124, tag omitted): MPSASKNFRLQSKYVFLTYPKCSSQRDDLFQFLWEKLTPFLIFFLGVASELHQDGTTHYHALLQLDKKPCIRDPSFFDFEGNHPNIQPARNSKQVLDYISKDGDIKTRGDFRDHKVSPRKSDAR
Here is the method: as §1
For test [5], the system named is T5, Rep nickase domain of faba bean necrotic yellows virus.
T5 sequence (protein, residues 1-98, tag omitted): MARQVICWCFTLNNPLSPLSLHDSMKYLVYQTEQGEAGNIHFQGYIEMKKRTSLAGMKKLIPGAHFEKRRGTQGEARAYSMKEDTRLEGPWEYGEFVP
The method, then: as §1
The test system of test [6] is T6, Rep nickase domain of maize striate mosaic virus.
T6 sequence (protein, residues 1-117, tag omitted): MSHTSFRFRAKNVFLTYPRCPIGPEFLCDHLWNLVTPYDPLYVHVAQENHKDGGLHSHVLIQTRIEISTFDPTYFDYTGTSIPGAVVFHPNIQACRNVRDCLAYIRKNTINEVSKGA
Here is the method: as §1
Test [7] concerns T7, Rep nickase domain of porcine circovirus 2.
T7 sequence (protein, residues 2-116, tag omitted): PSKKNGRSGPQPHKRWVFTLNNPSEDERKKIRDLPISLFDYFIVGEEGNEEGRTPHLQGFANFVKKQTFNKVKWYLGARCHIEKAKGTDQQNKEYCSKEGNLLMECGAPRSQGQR
Here is the method: as §1
In test [8] the test system is T8, Rep nickase domain of tomato golden mosaic virus.
T8 sequence (protein, residues 1-124, tag omitted): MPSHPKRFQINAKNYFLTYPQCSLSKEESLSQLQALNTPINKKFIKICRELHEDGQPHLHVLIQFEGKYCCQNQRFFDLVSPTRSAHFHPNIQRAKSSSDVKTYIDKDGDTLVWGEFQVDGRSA
Here is the method: as §1
In test [9] the test system is T9, Rep nickase domain of tomato yellow leaf curl virus.
T9 sequence (protein, residues 1-136, tag omitted): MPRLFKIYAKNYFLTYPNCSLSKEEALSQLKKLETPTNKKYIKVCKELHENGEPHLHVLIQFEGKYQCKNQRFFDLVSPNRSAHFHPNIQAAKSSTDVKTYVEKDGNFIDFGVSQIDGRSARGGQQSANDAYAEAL
The method, then: as §1
Test [10] has as its system T10, Rep nickase domain of wheat dwarf virus.
T10 sequence (protein, residues 1-137, tag omitted): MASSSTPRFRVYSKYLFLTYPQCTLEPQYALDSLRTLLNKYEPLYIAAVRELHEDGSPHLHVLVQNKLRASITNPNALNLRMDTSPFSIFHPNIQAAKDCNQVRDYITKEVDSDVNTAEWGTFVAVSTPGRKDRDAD
Here is the method:
as §1

This is one part of the list. Viral Rep nickase domains cut single-stranded DNA in vitro (3 µM enzyme, 1 h, 37 °C); shown is the middle of each 90-letter strand. Uncut reads are compared with the no-enzyme pool on a log2 scale; strong cutting gives strongly negative numbers. There is no active / inactive call. Reads are scaled to the total; uncut strands gain when others are lost, and binding without cutting may add a little.

Turning to TCTGGTC, the “uncleaved DNA left (log2)” value in test [1] was 0.244; in test [2], 0.138; in [3], 0.269; in test [4], 0.274; in test [5], 0.0227; in test [6] it was 0.153. The “uncleaved DNA left (log2)” value came out at 0.227 in [7], 0.0251 in [8], 0.185 in test [9] and 0.218 in [10].

With TCCTCCG, the “uncleaved DNA left (log2)” value in [1] is -0.0552; in test [2], -0.1; in [3], -0.723; in test [4] it was -0.475; in test [5], -0.131; in [6], -1.17. Moreover, the “uncleaved DNA left (log2)” value was 0.0826 in test [7], -0.16 in test [8], -0.139 in [9] and -0.12 in test [10].

As to GGCGAAA, the “uncleaved DNA left (log2)” value in test [1] is 0.077; in test [2], 0.176; in [3] it was 0.369; in test [4], 1.04; in test [5], 0.00948; in test [6], 1.41. The “uncleaved DNA left (log2)” value in test [7] is 0.13; in test [8] it was 0.16; in [9] it was 0.143; in test [10], 0.196.

For the sequence TTCGACC, the “uncleaved DNA left (log2)” value in test [1] was 0.0447; in test [2] it was 0.0561; in test [3], -0.0319; in [4], -0.0264; in [5], 0.0815; in [6] it was -0.858. Besides, the “uncleaved DNA left (log2)” value in test [7] was -0.0185; in test [8], -0.0526; in test [9], -0.0622; in [10], -0.104.

Values taken from the supplement of paper PMC7826260.
